Measurements taken from the supplement of paper PMC4604168 (melanoma cell lines).
Some of the results follow. Single values are uncertain, as repeats are few or missing.

How the values were obtained:
Assay in all cases: cell count relative to DMSO control; melanoma cells; higher = more viable cells
Conditions in all cases: library dose: standard library concentration; 72 h
[1] = test system: G361
[2] = test system: IPC-298
[3] = test system: IST-MEL1
[4] = test system: LB2518-MEL
[5] = test system: LOXIMVI
[6] = test system: MEL-HO
[7] = test system: MZ2-MEL
[8] = test system: MeWo
[9] = test system: RPMI7951
[10] = test system: RVH-421
[11] = test system: SkMel28
[12] = test system: SkMel2
[13] = test system: SkMel30
[14] = test system: SkMel5
[15] = test system: UACC257
[16] = test system: UACC62
[17] = test system: WM115
[18] = test system: WM1716
[19] = test system: WM1745
[20] = test system: WM3526
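Further: cells treated in 1,536-well plates, then fixed and DAPI-stained, with nuclei counted from automated high-throughput microscope images.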

Compound	cell count [1]	cell count [2]	cell count [3]	cell count [4]	cell count [5]	cell count [6]	cell count [7]	cell count [8]	cell count [9]	cell count [10]	cell count [11]	cell count [12]	cell count [13]	cell count [14]	cell count [15]	cell count [16]	cell count [17]	cell count [18]	cell count [19]	cell count [20]
O=C(Nc1cccc(Cl)c1)Nc1ncc(CCNc2ncnc3ccsc23)s1 + CN(C)S(=O)(=O)c1ccc2c(c1)/C(=C/c1cc3c([nH]1)CCCC3)C(=O)N2 [SU6656] (first compound 0.004 µM, partner dose 2 µM)	47%	43.8%	39.5%	74%	77.4%	70.9%	65.7%	52.3%	70.4%	71.6%	38.6%	55.9%	83%	57.8%	64.1%	89.8%	50.3%	44.7%	61.2%	43.3%
CC1(C)NC(=O)N(c2ccc([N+](=O)[O-])c(C(F)(F)F)c2)C1=O [nilutamide] + COc1cc2ncnc(Nc3ccc(Oc4ccccc4)cc3)c2cc1OC [SrcI1] (first compound 5 µM, partner dose 10 µM)	66.8%	99.4%	91.9%	125%	73%	93.3%	79.6%	81.8%	49.5%	122%	77.4%	100%	101%	71.7%	90.4%	71.9%	76.6%	86.6%	70.6%	70.3%
CC1(C)NC(=O)N(c2ccc([N+](=O)[O-])c(C(F)(F)F)c2)C1=O [nilutamide] + O=C(Nc1ccccc1)c1cc([N+](=O)[O-])ccc1Cl [GW9662] (first compound 5 µM, partner dose 10 µM)	89.3%	104%	84.3%	66.4%	79.4%	89.3%	75%	85.8%	89.8%	75.5%	69.5%	82.5%	83.2%	85.8%	84.2%	87.2%	62.7%	96.8%	69.7%	80%
COc1cc(Nc2ncc(F)c(Nc3ccc4c(n3)NC(=O)C(C)(C)O4)n2)cc(OC)c1OC [Tamatinib] + NCC(=O)Nc1ccc(-n2nc(C(F)(F)F)cc2-c2ccc3c(ccc4ccccc43)c2)cc1 [OSU03012] (first compound 2 µM, partner dose 5 µM)	51%	65%	38.1%	70.3%	15.5%	37.2%	76.2%	63%	60.9%	66.9%	33.1%	68.4%	39.1%	59.1%	65%	59.6%	76.6%	74.2%	40.2%	63%
Cn1cncc1[C@@](N)(c1ccc(Cl)cc1)c1ccc2c(c1)c(-c1cccc(Cl)c1)cc(=O)n2C [tipifarnib] + CCc1ccc(CCOc2ccc(CC3SC(=O)NC3=O)cc2)nc1 [pioglitazone] (first compound 0.05 µM, partner dose 10 µM)	86.2%	105%	95.9%	81.7%	118%	94.8%	111%	109%	112%	89.3%	57.4%	85.5%	111%	73.6%	100%	83.3%	71.5%	59.4%	85.7%	86.6%
COc1cc(Nc2ncc(F)c(Nc3ccc4c(n3)NC(=O)C(C)(C)O4)n2)cc(OC)c1OC [Tamatinib] + COC(=O)c1sccc1S(=O)(=O)Nc1ccc(Nc2ccccc2)cc1OC [GSK0660] (first compound 2 µM, partner dose 5 µM)	74.6%	72.5%	99.2%	72.4%	50.4%	75.7%	76.8%	80.9%	59.1%	71.6%	77.8%	81.6%	78.5%	51.3%	72.8%	100%	72.2%	85.2%	59.9%	81.7%
C[C@@H]1CCN(C(=O)CC#N)C[C@@H]1N(C)c1ncnc2[nH]ccc12 + O=c1cc(-c2cccc3c2Sc2ccccc2S3)oc(N2CCOCC2)c1 [KU55933] (first compound 5 µM, partner dose 5 µM)	72.9%	94.2%	107%	90.3%	78.7%	83.9%	93.9%	84.7%	71.4%	88.7%	88.7%	81.3%	96.6%	75%	85.1%	90.9%	84.5%	93%	82%	82.3%
CC1(C)NC(=O)N(c2ccc([N+](=O)[O-])c(C(F)(F)F)c2)C1=O [nilutamide] + O=c1cc(-c2cccc3c2Sc2ccccc2S3)oc(N2CCOCC2)c1 [KU55933] (first compound 5 µM, partner dose 5 µM)	86.7%	93.4%	113%	99.7%	136%	82.6%	90.1%	99.7%	98.2%	18.2%	90%	93.6%	81.9%	78.7%	88.1%	66.5%	112%	84.2%	92.8%	95.4%
COc1cc(Nc2ncc(F)c(Nc3ccc4c(n3)NC(=O)C(C)(C)O4)n2)cc(OC)c1OC [Tamatinib] + OCCn1cc(-c2cnc3nnn(Cc4ccc5ncccc5c4)c3n2)cn1 [PF04217903] (first compound 2 µM, partner dose 5 µM)	76.7%	81.1%	65.7%	83.2%	25.3%	77.1%	85.4%	59.1%	26.1%	82.9%	83.6%	67.3%	88.9%	48.4%	67.9%	44.2%	68.7%	68.9%	40.7%	59.9%
O=C(Nc1cccc(Cl)c1)Nc1ncc(CCNc2ncnc3ccsc23)s1 + O=c1cc(-c2cccc3c2Sc2ccccc2S3)oc(N2CCOCC2)c1 [KU55933] (first compound 0.004 µM, partner dose 5 µM)	65.6%	89.2%	57.4%	97%	56.5%	77%	96.8%	68.4%	62.8%	91.6%	71.2%	81.1%	86.9%	121%	83.3%	85.9%	41.9%	52.4%	56.6%	65.7%
COc1cc(Nc2ncc(F)c(Nc3ccc4c(n3)NC(=O)C(C)(C)O4)n2)cc(OC)c1OC [Tamatinib] + N#Cc1c(O)c2c(-c3ccc(-c4ccccc4O)cc3)csc2[nH]c1=O [A769662] (first compound 2 µM, partner dose 10 µM)	72.6%	73%	64.6%	78.7%	39.8%	69.7%	71.8%	67.5%	33.2%	79.3%	60.8%	77.4%	93.9%	61.8%	86.1%	82.8%	78.6%	85.3%	52.2%	79%
CC1(C)NC(=O)N(c2ccc([N+](=O)[O-])c(C(F)(F)F)c2)C1=O [nilutamide] + COc1ccc(COc2ccc(Cc3cnc(N)nc3N)cc2OC)cc1 [GW2580] (first compound 5 µM, partner dose 5 µM)	77.9%	88.1%	93%	98.2%	105%	104%	92.7%	91.2%	118%	82.6%	76.4%	83.3%	89.6%	86%	96.7%	121%	86.1%	109%	84.2%	92%
Cn1cncc1[C@@](N)(c1ccc(Cl)cc1)c1ccc2c(c1)c(-c1cccc(Cl)c1)cc(=O)n2C [tipifarnib] + CCCCCCCCCCCC1=C(O)C(=O)C=C(O)C1=O [Embelin] (first compound 0.05 µM, partner dose 6 µM)	85.6%	78.8%	69.9%	80.8%	104%	82.9%	86.1%	88.3%	75.9%	71.5%	47.1%	71.3%	102%	63.9%	82.1%	69.2%	74.4%	72.5%	89.6%	76%
O=c1[nH]nc(Sc2ncc([N+](=O)[O-])s2)n1-c1ccc2c(c1)OCCO2 + OCCn1cc(-c2cnc3nnn(Cc4ccc5ncccc5c4)c3n2)cn1 [PF04217903] (first compound 1 µM, partner dose 5 µM)	75.7%	100%	95.5%	84.8%	94.6%	98%	121%	93.4%	106%	99.8%	103%	91.6%	119%	90.6%	87.5%	90.1%	71.5%	96.7%	69.3%	89.5%
O=c1[nH]nc(Sc2ncc([N+](=O)[O-])s2)n1-c1ccc2c(c1)OCCO2 + C[C@]1(O)C[C@@H](c2nc(-c3ccc4ccc(-c5ccccc5)nc4c3)c3c(N)nccn32)C1 [OSI906] (first compound 1 µM, partner dose 2 µM)	96.1%	96.8%	109%	119%	76.8%	87%	87.2%	85.6%	71.4%	137%	138%	91.1%	84.6%	113%	85.4%	85.6%	113%	106%	67.7%	98%
O=c1[nH]nc(Sc2ncc([N+](=O)[O-])s2)n1-c1ccc2c(c1)OCCO2 + Cc1nc(Nc2ncc(C(=O)Nc3c(C)cccc3Cl)s2)cc(N2CCN(CCO)CC2)n1 [dasatanib] (first compound 1 µM, partner dose 0.02 µM)	75.1%	76.1%	77.8%	67.7%	32.8%	71.1%	49.5%	69.1%	42.5%	66.8%	76.4%	81.7%	97.6%	44.4%	83.1%	57%	60.5%	72.1%	39.6%	78.7%
O=c1[nH]nc(Sc2ncc([N+](=O)[O-])s2)n1-c1ccc2c(c1)OCCO2 + COc1cc2c(Oc3ccc4[nH]c(C)cc4c3F)ncnc2cc1OCCCN1CCCC1 [cediranib] (first compound 1 µM, partner dose 2 µM)	89.8%	136%	79.3%	98.2%	80.8%	115%	115%	104%	66%	86.6%	85.7%	124%	94.9%	108%	96.1%	80%	119%	109%	84.5%	110%
